# Experimental data taken from PMC4336329 (PLoS ONE, 2015).
# Among all 310,000 compounds or so, about 14,000 (4.5%) showed an effect of 50% or more. Effects have a minus sign here. This is one part of the list.
# Target: human ether-à-go-go-related gene (hERG) potassium channel (human, UniProt Q12809)
# Test: primary screen, population patch clamp on CHO cells stably expressing hERG
# 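Note: peak tail current of the secondary pulse compared with the same well before compound.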
# human ether-à-go-go-related gene (hERG) potassium channel, sequence (Q12809 whole entry, looked up): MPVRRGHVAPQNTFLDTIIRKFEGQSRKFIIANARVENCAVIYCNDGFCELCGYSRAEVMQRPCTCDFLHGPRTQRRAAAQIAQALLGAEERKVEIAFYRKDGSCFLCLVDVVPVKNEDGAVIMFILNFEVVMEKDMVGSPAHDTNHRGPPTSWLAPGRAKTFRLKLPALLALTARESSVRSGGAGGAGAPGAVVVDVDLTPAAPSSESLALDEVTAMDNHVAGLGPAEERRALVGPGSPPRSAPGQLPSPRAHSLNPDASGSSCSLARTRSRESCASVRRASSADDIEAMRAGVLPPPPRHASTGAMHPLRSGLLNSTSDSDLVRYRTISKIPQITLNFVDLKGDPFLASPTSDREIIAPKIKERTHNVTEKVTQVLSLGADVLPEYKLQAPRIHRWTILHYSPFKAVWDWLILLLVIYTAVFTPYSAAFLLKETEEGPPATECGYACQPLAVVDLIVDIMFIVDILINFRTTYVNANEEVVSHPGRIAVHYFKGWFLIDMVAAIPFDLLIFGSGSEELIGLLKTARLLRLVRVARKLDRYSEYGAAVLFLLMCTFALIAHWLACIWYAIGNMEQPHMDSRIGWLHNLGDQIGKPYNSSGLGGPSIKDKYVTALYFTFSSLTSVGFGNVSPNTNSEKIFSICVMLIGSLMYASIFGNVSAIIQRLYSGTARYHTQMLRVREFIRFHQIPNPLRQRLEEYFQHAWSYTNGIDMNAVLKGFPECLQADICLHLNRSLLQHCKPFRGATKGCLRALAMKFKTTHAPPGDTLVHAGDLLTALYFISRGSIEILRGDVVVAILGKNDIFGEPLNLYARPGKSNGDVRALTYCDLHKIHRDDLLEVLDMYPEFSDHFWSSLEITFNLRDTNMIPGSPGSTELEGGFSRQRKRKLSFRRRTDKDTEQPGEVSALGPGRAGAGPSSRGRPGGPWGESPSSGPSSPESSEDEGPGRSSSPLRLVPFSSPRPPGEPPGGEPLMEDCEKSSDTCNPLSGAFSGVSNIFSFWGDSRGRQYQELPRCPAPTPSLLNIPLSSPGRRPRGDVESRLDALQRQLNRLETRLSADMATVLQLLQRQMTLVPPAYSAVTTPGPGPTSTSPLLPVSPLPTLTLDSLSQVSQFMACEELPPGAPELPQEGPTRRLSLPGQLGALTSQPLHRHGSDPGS
row,SMILES,"hERG current change (%, negative = inhibition) at 10uM"
1,Cc1ccc(/C(N)=N/OC(=O)COc2ccc(Cl)c(C)c2)cc1,10.4%
2,Nc1nc(CSc2nc3ccccc3s2)nc(N2CCOCC2)n1,5.71%
3,Cc1nc2ccccc2c(=O)n1/N=C/c1cc(Br)ccc1O,28.4%
4,O=C(Cn1cnc([N+](=O)[O-])n1)N/N=C/c1ccccc1O,14.4%
5,O=C(C1CCCCN1S(=O)(=O)c1ccccc1[N+](=O)[O-])N1CCCCC1 (stereo not shown),19.9%
6,Cc1nn(C)cc1/C=N/NC(=O)C1(O)c2ccccc2-c2ccccc21,0.708%
7,CCc1cccc(C)c1NC(=O)CCNC(=O)c1cccc(C)c1,12.6%
8,CC1Cc2ccccc2N1S(=O)(=O)c1cccc(C(=O)OCC(=O)NC2CCS(=O)(=O)C2)c1 (stereo not shown),-34.8%
9,c1ccc(Cc2cc(-c3ccccc3)on2)cc1,4.06%
10,CC(C)N(CCn1c(SCC(=O)Nc2cccnc2Cl)nc2ccccc2c1=O)C(C)C,-69.7%
11,Cc1ccc(N2CC(C(=O)N3CCCc4ccccc43)CC2=O)cc1 (stereo not shown),-18.8%
12,COc1cc(C(N)=O)cc(Br)c1OCc1ccccc1,2.25%
13,Cc1nc2ccccc2c(=O)n1/N=C/c1ccccc1F,6.07%
14,CN1CCN(C2CC(=O)N(c3ccc4c(c3)OCCO4)C2=O)CC1.Cl (stereo not shown),14.1%
15,N#Cc1cccc(NC(=O)CCNC(=O)c2ccccc2Cl)c1,21.8%
16,COC(=O)CNC(=O)COC(=O)/C=C/c1cccs1,1.93%
17,COc1ccc(OC)c(NC(=O)COC(=O)/C=C/c2ccc(Cl)cc2)c1,-5.45%
18,COc1ccc(SC[C@H](Cc2ccccc2)N2CC[C@@H](C(C)(C)C)CCC2=O)cc1,9.92%
19,CC(=O)Nc1cccc(NC(=O)c2cc(-c3cccnc3)nc3ccc(Cl)cc23)c1,12.5%
20,CC1Cc2ccccc2N1C(=O)c1cnsn1 (stereo not shown),3.84%
21,O=C(COc1ccc(S(=O)(=O)N2CCCCC2)cc1)N1CCOCC1,3.54%
22,CC(=O)N1CCN(C2=NC(=O)/C(=C/c3ccc(OS(=O)(=O)c4ccccc4)cc3)S2)CC1,-69.6%

row,SMILES,"hERG current change (%, negative = inhibition) at 10uM"
1,O=C(CN1C(=O)NC(Cc2c[nH]c3ccccc23)C1=O)Nc1cccc(S(=O)(=O)N2CCCC2)c1 (stereo not shown),1.65%
2,CC(C)(C)NC(=O)C(c1ccccc1)N(C(=O)c1ccco1)C1CC1 (stereo not shown),-8.39%
3,COc1c(C)cccc1C(=O)NC(=S)Nc1ccccc1N1CCCC1,15.6%
4,CCc1ccc(NC(=O)C2CCN(S(=O)(=O)c3cccs3)CC2)cc1,-42.1%
5,O=C(NCc1ccc(N2CCCC2=O)cc1)c1cc(COc2c(F)cccc2F)on1,4.12%
6,CCC(=O)OCCn1c(=O)c2ccccc2c2ccccc2c1=O,1.82%
7,CCc1nn2c(=O)cc(CSCC(=O)Nc3ccccc3F)nc2s1,11.3%
8,CCCNC(=O)Cn1cnc2sc(C(=O)NCCN(CC)CC)c(C)c2c1=O,-1.05%
9,Cn1c(O)c(C=NCCN2CCN(C(=O)c3ccccc3)CC2)c(=O)n(C)c1=O,-16.6%
10,COC(=O)C1=C(c2ccccc2)C[C@@H]2CC[C@H]1N2C(=O)N1CCCC1,6.66%
11,Cc1cccc(NC(=S)Nn2cnnc2)c1C,11.3%
12,CCC(=O)c1ccc(OCC(=O)N(Cc2nnc(-c3ccccc3Cl)o2)C2CC2)cc1,-67.2%
13,COc1ccc(OCc2nnc(SCC(=O)N3CCOCC3)o2)cc1,12.4%
14,Cc1nnc(SCc2cc(=O)[nH]c(N3CCN(C)CC3)n2)s1,-4.73%
15,CCCSc1ccc(C(=O)Nc2ccc(Cl)cc2)cn1,11.6%
16,Cn1ncn2c(=O)c3c(nc12)-c1ccccc1CC31CCCC1,1.56%
17,CC(=O)Nc1cccc(NC(=O)CSc2ccc(C(F)(F)F)cc2[N+](=O)[O-])c1,2.3%
18,O=C(NCCOc1nc(N2CCCCC2)nc(N2CCOCC2)n1)Nc1ccccc1,-0.098%
19,CC(C)(C)CN1CCNC(=O)C1CC(=O)NCCc1ccccc1C(F)(F)F (stereo not shown),-13.3%
20,CC(C)CN1C(=O)c2ccc(NC(=O)c3cccs3)cc2C1=O,-5.23%
21,O=S(=O)(NN1CCOCC1)c1ccc(Cl)s1,4.37%
22,Cc1c(C)n(-c2ccccc2)c2ncnc(NCCCN(C)C)c12,0.841%

row,SMILES,"hERG current change (%, negative = inhibition) at 10uM"
1,FC(F)(F)c1cccc(NC(=S)NCC2COc3ccccc3O2)c1 (stereo not shown),9.16%
2,CCOc1ccc(N(CC(=O)Nc2cccc(N(C)S(C)(=O)=O)c2)S(=O)(=O)c2ccccc2)cc1,-2.52%
3,Cc1cccc(NC(=S)NNc2ncc(C(F)(F)F)cc2Cl)c1,4.55%
4,COc1ccc(-c2ccc(SCC(=O)c3ccccc3)nn2)cc1OC,-15.7%
5,NNC(=S)Nc1cccc(-c2n[nH]c(=S)o2)c1,13.8%
6,O=[N+]([O-])c1cc([N+](=O)[O-])c(Oc2cccc(Cl)c2Cl)cc1NN1CCCCC1,9.77%
7,CCn1cc(/C=C(\NC(=O)c2ccccc2Cl)C(=O)NCCN2CCOCC2)c2ccccc21,-2.69%
8,Cc1ccc(S(=O)(=O)N2CCN(C(=O)CCC(=O)NCCc3ccc(F)cc3)CC2)cc1,-34.2%
9,NS(=O)(=O)c1cccc(NC(=O)CC2(CC(=O)O)CCCC2)c1,33.9%
10,CCOc1ccc(C(=O)NCC(=O)Nc2ccc(N3CCOCC3)cc2)cc1OCC,-1.2%
11,Cc1oc(C(=O)O)cc1COc1ccc2c(C)cc(=O)oc2c1,1.72%
12,COc1ccc(N2CCN(C(=O)c3ccccc3NS(=O)(=O)c3ccc(C)cc3)CC2)cc1,-0.438%
13,CC(O)CNCc1ccc(-c2ccccc2)cc1.Cl (stereo not shown),-0.602%
14,COc1ccc(/C=C(/NC(=O)c2ccc(C)cc2)C(=O)N2CCCC2)cc1OC,-19%
15,CCOc1ccc(CCNC(=O)Nc2ccccc2C)cc1OCC,5.4%
16,CCOC(=O)C1(C(F)(F)F)N=C(C(F)(F)F)Nc2ccc(F)cc21 (stereo not shown),-0.636%
17,CN(C)c1ccc(/C=C2\C(=N)N3N=C(CC(=O)N4CCCC4)SC3=NC2=O)cc1Br,4.09%
18,O=C(O)CCN1C(=O)C2C3c4ccccc4C(c4ccccc43)C2C1=O (stereo not shown),7.11%
19,COc1ccccc1NC(=O)/C=C/c1ccc2c(c1)OCO2,-8.32%
20,CCN(C(=O)COC(=O)CN(C)S(=O)(=O)c1ccc(NC(C)=O)cc1)C1CCS(=O)(=O)C1 (stereo not shown),15.7%
21,C#CCOCCOCCOCCNc1nc(N2CCOCC2)nc(N2CCN(C(=O)[C@H](Cc3ccc(O)cc3)n3cc([C@@H](N)C(C)CC)nn3)CC2)n1.Cl (stereo partly shown),10.1%
22,O=C(COC(=O)c1cccnc1Cl)c1ccc2c(c1)OCCO2,-2.77%

row,SMILES,"hERG current change (%, negative = inhibition) at 10uM"
1,C#CCNC(=O)C1=C[C@H](c2csc3ccccc23)C[C@H](OCc2ccc(CO)cc2)O1,-10.1%
2,O=C(Cc1ccccc1[N+](=O)[O-])NNC(=O)Nc1ccc2c(c1)OCO2,1.25%
3,Cc1ccccc1NC(=O)Cn1nnc2ccccc21,-12%
4,O=C1C2ON(c3ccccc3)C(c3cccnc3)C2C(=O)N1Cc1ccccc1 (stereo not shown),-50.8%
5,CN(C(=O)/C=C/c1ccc2c(c1)OCO2)c1ccccc1,-4.59%
6,O=C(Cn1c(=S)[nH]c2ccccc2c1=O)N1CCc2ccccc2C1,17.3%
7,CCOc1ccc2nc(NC(=O)C3CCCN(S(=O)(=O)c4cccc5nonc45)C3)sc2c1 (stereo not shown),-4.36%
8,COc1c2c(cc3oc(=O)c4c5ccc(O)cc5oc4c13)OC(C)(C)CC2,19.8%
9,COc1ccccc1CNC(=O)[C@@H]1CCCN1S(=O)(=O)c1ccc(C)cc1,-10.4%
10,O=C(NNC(=O)c1ccc(Oc2ccc(C3SCCS3)cc2)o1)c1ccc(Cl)cc1,8.53%
11,O=C1OC(N2C(=O)CC[C@H]2C(=O)Nc2ccc3c(c2)OCO3)c2ccccc21 (stereo partly shown),2.99%
12,COC(=O)c1sc(NC(=O)c2cc(-c3ccccc3)nc3ccccc23)c(C#N)c1C,-2.37%
13,Cc1ccc2c(c1)c(C)c(C)n2CC(O)Cn1nc(C)c(Br)c1C (stereo not shown),12%
14,CCC(C)N1C(=O)CCC1C(=O)NCCc1ccc(Cl)cc1 (stereo not shown),-3.57%
15,Cc1onc(-c2ccccc2)c1C(=O)NC(C)c1ccccc1 (stereo not shown),12.7%
16,Cc1ccc(C)c(N2CC(O)(c3cccs3)[N+]3=C2CCCC3)c1.[Br-] (stereo not shown),-23%
17,CCOC(=O)C1CCN(C(=O)Cn2nc(CC)n3cccc3c2=O)CC1,-0.254%
18,CCOC(=O)/C=C/c1nc(C(=O)OCC)c(C)c(=O)[nH]1,25.5%
19,CCCc1c(C(=O)N/N=C/c2cccc3ccccc23)nnn1-c1nonc1N,12.4%
